Measured values from PubChem BioAssay AID686978 (National Center for Advancing Translational Sciences (NCATS), 2013).
The campaign covered roughly 420,000 compounds. About 64,000 (15%) were called active. The shares of active, inactive and inconclusive entries below differ from those in the screen. The call rests on the fitted dose curve; in most records, active means well fitted inhibition curve with a large enough effect; inconclusive means small, poorly fitted or top-dose-only effect; inactive means flat fitted curve, though single readings scatter. No potency is given beside an inconclusive call; the fits are too rough.

Test: qHTS for Inhibitors of human tyrosyl-DNA phosphodiesterase 1 (TDP1): qHTS in cells in absence of CPT; further: nearly all actives have a fitted effect of over 55% in size
Details: DT40 Tdp1-/- hTDP1 cells, no CPT, ATP luminescence, 48 h; activity change, negative = growth inhibition: at 46.2 µM (top of the series) unless noted
Summary of the method: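 Growth of hTDP1-complemented DT40 Tdp1-knockout cells is measured by ATP luminescence after at least 48 hr compound exposure at 37 °C, with DMSO substituting for the 20 nM CPT used in the parallel screen.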
On the % scale 0 is the no-effect control and ±100 the full control effect; potency means the concentration at half of the fitted maximal effect; tags describe the fitted curve by direction and shape.

| SMILES | activity change, negative = growth inhibition | Potency |
| --- | --- | --- |
| CCN1CCN(C(=O)c2ccc(S(=O)(=O)Nc3ccccc3)cc2)CC1 | inactive: -16.6% |  |
| c1ccc(-c2ccc(C3=Nn4c(nnc4-c4cccs4)SC3)cc2)cc1 |  | inconclusive [inhibitor, single point] |
| CCCCCNC(=O)c1ccc2c(c1)ncn2-c1ccc(OC)cc1 | inconclusive: -31% [inhibitor] |  |
| CCOc1ccccc1C(=O)NCc1nc2cccnc2n1Cc1ccc(C)cc1 |  | active: 16.4 µM |
| CCOc1cc(CNC(=O)c2ccc3c(c2)N(C)C(=O)C2CCCCN32)ccc1OC (configuration not stated) |  | inconclusive [inhibitor, single point] |
| CCc1ccc(NC(=O)C(C)OC(=O)c2ccc(NS(=O)(=O)c3ccc(C)c([N+](=O)[O-])c3)cc2)cc1 (configuration not stated) |  | inconclusive [inhibitor, single point] |
| O=C(CNC(=O)c1ccc(F)cc1)OCc1cc(=O)n2nc(C3CCCCC3)sc2n1 | inactive: -0.701% |  |
| Cc1cnc(NC(=O)c2ccccn2)s1 |  | inconclusive [inhibitor, single point] |
| O=C(OC(C(=O)Nc1cc(Cl)cc(Cl)c1)c1ccccc1)C1=COCCO1 (configuration not stated) |  | active: 18.4 µM |
| C=CCn1c(SCC(=O)N(C(C)CC)C2CCS(=O)(=O)C2)nc2ccccc2c1=O (configuration not stated) | inactive: -13.5% |  |
| CC(C)(C)NS(=O)(=O)c1ccc(CCC(=O)Nc2cc(Cl)ccc2Oc2ccccc2)cc1 |  | inconclusive [inhibitor, single point] |
| Cc1ccc(OCC(=O)Nc2ccc([N+](=O)[O-])cc2)cc1 | inactive: 4.85% |  |
| CC(=O)Nc1nonc1-c1nc2ccccc2n1Cc1nnc(C)o1 | inactive: 12.9% |  |
| O=C(Nc1ccc(S(=O)(=O)N2CCOCC2)cc1)c1ccco1 |  | inconclusive [inhibitor, single point] |
| COc1ccc(CNC(=O)CCCn2nc(C)c3c(C)n(-c4ccc(C)cc4)nc3c2=O)cc1OC |  | inconclusive [inhibitor, partial curve] |
| COC(=O)N/N=C/c1cc(Cl)cc(Cl)c1OCc1ccccc1 |  | inconclusive [inhibitor, single point] |
| CCOc1ccc(NC(=O)CN(C)C(=O)c2c(-c3ccccc3)noc2C)cc1OCC |  | inconclusive [inhibitor, single point] |
| Cc1cc(C(=O)CN2C(=O)C(=O)N(Cc3ccccc3)C2=O)c(C)n1CC1COc2ccccc2O1 (configuration not stated) |  | active: 18.4 µM |
| O=C1c2ccccc2C(=O)N1CC1CCCO1 (configuration not stated) | inactive: -10.7% |  |
| Cc1ccc(N2CCN(C(=O)c3cnn(-c4ccc(C)c(C)c4)c3C3CCNCC3)CC2)c(C)c1 |  | active: 6.51 µM |
| COC(=O)c1ccc(-c2noc(CN(C)Cc3ccncc3C)n2)cc1 |  | inconclusive [inhibitor, partial curve, poor fit] |
| COc1ccc(CCN2C(=O)c3cccc4cccc(c34)C2=O)cc1OC |  | inconclusive [inhibitor, partial curve] |
| COc1cc(C(=O)OCC(=O)Nc2ccccc2)cc2c1OCCO2 |  | inconclusive [inhibitor, single point] |
| Cc1cc(C)cc(N(C(=O)c2sc(C)nc2C)C(C(=O)NCc2ccco2)c2ccccc2)c1 (configuration not stated) |  | inconclusive [inhibitor, single point] |

| SMILES | activity change, negative = growth inhibition | Potency |
| --- | --- | --- |
| COc1cc2c(cc1OC)C(C)N(C(=O)CCN1C(=O)C3C4C=CC(C4)C3C1=O)CC2 (configuration not stated) |  | inconclusive [inhibitor, single point] |
| Cc1cc(NC(=O)c2ccc(Cn3nc(C)c(Br)c3C)o2)no1 |  | inconclusive [inhibitor, full curve, poor fit] |
| COc1cc(S(=O)(=O)N(CCc2ccccc2)Cc2cccs2)ccc1-n1cnnn1 | inactive: -21% |  |
| CNc1nc(NCCOc2ccccc2)c2sccc2n1 |  | active: 20.6 µM |
| O=[N+]([O-])c1cc([N+](=O)[O-])c2cc(-c3cccnc3)[nH]c2c1 |  | inconclusive [inhibitor, partial curve] |
| N#Cc1cc(N)ccc1-n1cccc1 | inactive: -4.64% |  |
| COc1ccc(C=O)cc1COc1ccc(Cl)cc1[N+](=O)[O-] |  | active: 20.6 µM |
| O=C(CSc1nccn1Cc1ccco1)Nc1cc(C(F)(F)F)ccc1Cl |  | inconclusive [inhibitor, single point] |
| O=C(c1ccc2c(Cl)c3c(nc2c1)CCCC3)N1CCN(c2cccc(C(F)(F)F)c2)CC1 | inactive: -11.6% |  |
| O=C(O)c1ccccc1Nc1ccnc(C(F)(F)F)c1 |  | inconclusive [inhibitor, single point] |
| Cc1nc(C(F)(F)F)ccc1C(=O)N1CCC1(C)C(=O)NS(=O)(=O)c1ccccc1Cl (configuration not stated) | inactive: 4.11% |  |
| CCOc1ccccc1NC(=O)CN(C)S(=O)(=O)c1cccc2nsnc12 |  | inconclusive [inhibitor, single point] |
| CC(C)(C)C(=O)Nc1ccc(N=Nc2ccccc2)cc1 | inactive: -12.6% |  |
| CN1C(C(=O)NCC2CC2)CC2Cn3c(nc4ccccc43)C21 (configuration not stated) | inactive: -5.86% |  |
| COC(=O)c1c(-c2ccccc2)[nH]c(-c2nccc3ccccc23)c1C(=O)OC |  | inconclusive [inhibitor, single point] |
| CCC(CC)c1nnc(NC(=O)COc2ccc3c(C)cc(=O)oc3c2)s1 |  | inconclusive [inhibitor, single point] |
| Cc1ccc(C2C(C=Nc3c(C)n(C)n(-c4ccccc4)c3=O)=C(c3ccccc3)Oc3ccccc32)cc1 (configuration not stated) |  | inconclusive [inhibitor, single point] |
| COc1ccc(/C=N/NC(=O)c2[nH]nc3c2CCc2ccccc2-3)cc1OC |  | active: 2.59 µM |
| CCc1ccc(S(=O)(=O)c2cn(CC)c3cc(N4CCCCC4)c(F)cc3c2=O)cc1 |  | inconclusive [inhibitor, single point] |
| COCCN1CCC(CNCc2c(C(=O)N3CCCCC3)nc3c(C)cccn23)C1 (configuration not stated) | inactive: -0.779% |  |
| COc1cc(NCC2COc3c(ccc(OC)c3OC)C2=O)c([N+](=O)[O-])cc1OC (configuration not stated) |  | active: 18.4 µM |
| Cc1ccccc1CN1[C@@H](CC2CCCCC2)COCCS1(=O)=O |  | active: 12.6 µM |
| Cc1ccc(S(=O)(=O)CCC(=O)Nc2cc(Cl)ccc2-n2cncn2)cc1 |  | inconclusive [inhibitor, partial curve] |
| CC(=O)c1sc(N/N=C\c2ccccc2O)nc1C |  | active: 0.92 µM |

| SMILES | activity change, negative = growth inhibition | Potency |
| --- | --- | --- |
| CCC1(C)Cc2c(sc3c2c(=O)n(C)c2nnc(SCc4ccccc4)n32)CO1 (configuration not stated) |  | inconclusive [inhibitor, single point] |
| CNCC/C=C1/c2ccccc2CSc2ccccc21 |  | inconclusive [inhibitor, single point] |
| Cc1c(C(=O)N2CCc3ccccc3C2)oc2ccc(Br)cc12 |  | inconclusive [inhibitor, single point] |
| CC(C)(C)N1CSC(=S)N(Cc2ccccc2)C1 |  | active: 4.61 µM |
| CC(C)c1c(C(=O)N/N=C/c2ccc(Cl)cc2Cl)nnn1-c1nonc1N |  | inconclusive [inhibitor, single point] |
| COc1ccc(N2CCN(C(=O)c3cc4c(-c5ccc(Cl)cc5)nn(C)c4s3)CC2)cc1 |  | active: 16.4 µM |
| CC(C(=O)NC1CCCc2ccccc21)N1CCN(Cc2ccc3c(c2)OCO3)CC1 (configuration not stated) |  | inconclusive [inhibitor, single point] |
| O=c1/c(=C\c2ccc(O)cc2)sc2n1C(c1ccccc1)C(c1ccccc1)=NN=2 (configuration not stated) |  | inconclusive [inhibitor, single point] |
| CC(=O)OCON[N+]([O-])=NC(C)C |  | inconclusive [inhibitor, partial curve, poor fit] |
| CC(C)(C)c1ccc(CC(=O)N2CCC2(C)C(=O)O)cc1 (configuration not stated) | inactive: -21.4% |  |
| COc1ccc(-c2nsc3c(SCc4ccccc4)ncnc23)cc1 |  | inconclusive [inhibitor, single point] |
| Cc1ccc(CNC(=O)CN2CCN(Cc3ccc(F)cc3Cl)C2=O)cc1 | inactive: -24% |  |
| COc1ccccc1Cc1c(-c2ccccc2)nc2ccc(Cl)cn12 |  | inconclusive [inhibitor, single point] |
| COc1ccc2c(CNCCc3cccs3)c(C(=O)O)n(Cc3cccc(F)c3)c2c1 |  | inconclusive [inhibitor, single point] |
| CCNc1nc(NCC)nc(N/N=C/c2ccccc2)n1 | inactive: 0.417% |  |
| O=C(N/N=C/c1ccccn1)c1cccnc1 |  | inconclusive [inhibitor, partial curve, poor fit] |
| COc1ccc(NCc2nnc(SCC(=O)c3ccc(C)cc3)o2)cc1 |  | inconclusive [inhibitor, partial curve, poor fit] |
| Cc1cc(/C=C2/NC(=O)N(Cc3ccccc3F)C2=O)c(C)n1C |  | inconclusive [inhibitor, single point] |
| O=C(CN1CCN(c2ccccc2F)CC1)NC(=O)NCc1ccco1 | inactive: -0.0411% |  |
| Cc1ccc(C)c(CN2CCC(CNC(=O)CCc3nnc4ccc(N5CCC(C)CC5)nn34)CC2)c1 |  | inconclusive [inhibitor, single point] |
| COc1cccc2cc(CC(=O)c3ccccc3)c(=O)oc12 | inactive: -4.38% |  |
| CCc1ccc(Nc2sc(C(=O)c3ccc(F)cc3)c(N)c2S(=O)(=O)c2ccccc2)cc1 |  | inconclusive [inhibitor, single point] |
| CC(=O)NCCc1nc2cc(NS(=O)(=O)c3ccccc3)ccc2n1C | inactive: 5.51% |  |
| COc1cccc(NS(=O)(=O)c2ccc(-n3cccn3)cc2)c1 |  | active: 5.8 µM |
